Source: publication PMC4336329 (PLoS ONE, 2015)
In all, about 310,000 compounds went through this assay and about 2,200 (0.71%) showed an effect of 50% or more. Effects have a minus sign here. The list shows a part of the results.

target: human ether-à-go-go-related gene (hERG) potassium channel (human, UniProt Q12809); assay: primary screen, population patch clamp on CHO cells stably expressing hERG
Sequence (Q12809 whole entry, looked up): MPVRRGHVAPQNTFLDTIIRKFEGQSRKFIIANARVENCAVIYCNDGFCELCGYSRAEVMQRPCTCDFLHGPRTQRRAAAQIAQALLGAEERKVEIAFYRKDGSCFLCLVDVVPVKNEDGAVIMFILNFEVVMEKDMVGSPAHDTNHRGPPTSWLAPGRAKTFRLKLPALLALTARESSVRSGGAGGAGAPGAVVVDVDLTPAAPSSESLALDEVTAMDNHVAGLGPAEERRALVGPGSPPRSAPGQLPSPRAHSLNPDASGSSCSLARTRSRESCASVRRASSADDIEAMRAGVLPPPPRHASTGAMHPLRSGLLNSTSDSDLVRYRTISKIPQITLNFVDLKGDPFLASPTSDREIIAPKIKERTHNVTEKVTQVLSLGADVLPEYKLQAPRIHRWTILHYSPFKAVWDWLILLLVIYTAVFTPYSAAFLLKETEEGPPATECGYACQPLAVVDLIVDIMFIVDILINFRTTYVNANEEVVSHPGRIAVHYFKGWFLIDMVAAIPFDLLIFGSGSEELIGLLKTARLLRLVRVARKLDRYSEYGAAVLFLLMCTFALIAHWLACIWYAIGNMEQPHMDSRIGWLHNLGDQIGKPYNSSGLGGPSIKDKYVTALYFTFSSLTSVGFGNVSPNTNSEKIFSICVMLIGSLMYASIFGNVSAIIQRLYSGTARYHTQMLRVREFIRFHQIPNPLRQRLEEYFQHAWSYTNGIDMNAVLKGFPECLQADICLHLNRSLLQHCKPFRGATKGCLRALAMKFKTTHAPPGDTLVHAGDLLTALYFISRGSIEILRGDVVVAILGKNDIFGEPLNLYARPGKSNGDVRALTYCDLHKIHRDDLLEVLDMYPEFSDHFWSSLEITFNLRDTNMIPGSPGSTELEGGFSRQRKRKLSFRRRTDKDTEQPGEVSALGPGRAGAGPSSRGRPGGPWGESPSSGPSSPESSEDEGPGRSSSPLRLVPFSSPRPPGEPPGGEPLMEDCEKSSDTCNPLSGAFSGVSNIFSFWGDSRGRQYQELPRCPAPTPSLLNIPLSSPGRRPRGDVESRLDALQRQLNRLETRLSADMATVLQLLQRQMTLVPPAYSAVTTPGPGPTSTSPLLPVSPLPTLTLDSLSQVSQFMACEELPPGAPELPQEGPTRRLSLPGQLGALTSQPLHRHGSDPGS

Point of comparison: `C=CCC(=O)N1CCCC(CCC(=O)NCc2ccccc2F)C1` (stereo not shown), “hERG current change (%, negative = inhibition) at 1uM” value 14.4%. Against it:
- Cc1c(C(=O)Nc2ccccn2)sc2nc3n(c(=O)c12)CCC3 — lower, 10.1%
- COc1ccc(OC)c(N(CC(=O)N2CCc3ccccc3C2)S(C)(=O)=O)c1 — lower, 2.1%
- CCn1c(C)nc2cc(C(=O)NNC(=S)Nc3ccc(Cl)cc3)ccc21 — lower, 9.6%
- CC(C)(CNC(=O)c1cc([N+](=O)[O-])ccc1N1CCC(Cc2ccccc2)CC1)N1CCOCC1 — lower, 2.46%
- CC1CCc2c(nc3ncnn3c2N2CC(C)OC(C)C2)C1 (stereo not shown) — lower, 12.5%
- Cc1ccc(NC(=O)C2CCCN(S(=O)(=O)c3c(C)noc3C)C2)cc1F (stereo not shown) — lower, 8.2%
- COC(=O)c1cscc1NC(C)=O — higher, 15.2%
- Cc1nnc(SCC(=O)Nc2c(Cl)cccc2Cl)n(N)c1=O — higher, 17.8%
- CCOc1ccccc1N1CCN(C(=O)NC2CCCCC2)CC1 — lower, 7.29%
- COc1cc(C(=O)N2CC(C)OC(C)C2)c([N+](=O)[O-])cc1OC (stereo not shown) — lower, 6.35%
- Cc1ccc(S(=O)(=O)NCCSc2nnnn2-c2ccc(C(N)=O)cc2)cc1 — lower, 7.74%
- Cc1ccc(CC(=O)NC2CCN(Cc3ccccc3)CC2)cc1 — lower, 7.9%
- CNCCCN1c2ccccc2CCc2ccccc21.Cl — lower, 10.4%
- CCOC(=O)N1CCN(c2ccc([N+](=O)[O-])cc2)CC1 — lower, -30.9%
- O=C(O)c1cc([N+](=O)[O-])c(NCc2cccnc2)c([N+](=O)[O-])c1 — lower, 14%
- Cc1cc2cccc(C)c2nc1SCC(=O)NC1CCCCC1 — lower, 9.02%
- Cc1ccc(S(=O)(=O)N2CCC(C(N)=O)CC2)cc1[N+](=O)[O-] — lower, 9.67%
- O=C(NC1CC(=O)N(c2ccccc2)C1)N1CCN(C(=O)c2ccco2)CC1 (stereo not shown) — lower, 8.15%
- FC(F)(F)c1cccc(NC(=S)N2CCN(c3ccccc3)CC2)c1 — lower, 8.68%
- CCOC(=O)CNC(=O)CSc1nc(-c2cccc(C)c2)ns1 — lower, 7.97%
- O=C(NCc1ccccc1)Oc1cccc(Cl)c1 — higher, 16%
- CCCCCNCC(=O)Nc1cc(C(F)(F)F)ccc1OCCOC — lower, -5.74%
- CC(=O)c1cc2c(cc1NC(=O)CSc1nnc(C)s1)OCO2 — lower, 4.66%
- O=C(NCCCNC(=O)c1ccc(Cl)cc1Cl)c1cnccn1 — lower, 13.7%
- Cc1ccc(S(=O)(=O)Nc2csc(C)c2C(=O)O)cc1 — lower, 8.22%
- CCOC(=O)NN1C(=O)c2ccccc2NC1c1ccccc1 (stereo not shown) — lower, -1.25%
- O=C(Cn1nnc(-c2ccccc2F)n1)Nc1ccc2c(c1)OCO2 — lower, 11.4%
- COc1ccccc1COn1c(=O)c(-c2ccco2)[n+]([O-])c2ccccc21 — lower, 6.12%
- Fc1cccc(F)c1-n1c(CN2CCCC2)csc1=S — lower, 3.31%
- S=C(NCCCc1ccccc1)NC1CCCCC1 — lower, 11.7%
- Cc1nn(-c2ccccc2)c2sc(C(=O)N(CC(=O)NC(C)(C)C)Cc3ccco3)cc12 — lower, -1.39%
- CC(CCn1cccn1)NC(=O)c1cc(COc2ccc(F)cc2F)on1 (stereo not shown) — lower, -1.04%
- COC(=O)C1=C(c2ccc(C(C)=O)cc2)C[C@@H]2CC[C@H]1N2C(=O)N1CCC(O)CC1 — higher, 15.6%
- O=P(OC1CCS(=O)(=O)C1)(c1ccccc1)c1ccccc1 (stereo not shown) — lower, 12.3%
- CC(=O)c1ccc(N2CCN(S(=O)(=O)c3cccc4nonc34)CC2)cc1 — lower, 5.71%
- CNc1nc(-c2ccccc2)[n+](-c2ccc(C)cc2)s1.[Br-] — lower, -3.4%
- CC(C)(C)c1ccc(OCCCNCc2ccccc2)cc1.O=C(O)C(=O)O — lower, 8.06%
- CC1CCCC(C)N1C(=O)CSc1nc2ncnc(N)c2[nH]1 (stereo not shown) — lower, -6.34%
- COc1ccc(S(=O)(=O)Nc2ccccc2C(N)=O)cc1OC — lower, 7.16%
- CCCCn1c(N)c(N(CCC(C)C)C(=O)COC(=O)c2sccc2C)c(=O)[nH]c1=O — lower, 4.72%
- Cc1cc(C)nc(/N=C(\N)c2c(O)[nH]c(=O)[nH]c2=O)n1 — lower, 6.07%
- CC(=O)C1=C(O)C(=O)N(c2ccc(S(=O)(=O)Nc3nccs3)cc2)C1c1ccc([N+](=O)[O-])cc1 (stereo not shown) — higher, 16.8%
- COc1cc(C(=O)OC2CCOC2=O)c([N+](=O)[O-])cc1OC (stereo not shown) — higher, 14.8%
- CCCCn1c(N)c(N(CCC(C)C)C(=O)CN2C(=O)C3CCCCC3C2=O)c(=O)[nH]c1=O (stereo not shown) — lower, 8.37%
- COC(=O)CCC(=O)Nc1cccc(Br)c1 — lower, 7.99%
- Cc1cccc(C)c1Nc1c(-c2ccccn2)nc2ccccn12 — lower, -0.742%
- CC1=C(C(=O)OCc2ccccc2)C(c2ccccn2)c2c(n(C)c(=O)n(C)c2=O)N1 (stereo not shown) — lower, 0.653%
- Cc1ccc2nc(N(CCCN(C)C)C(=O)c3ccc(Br)s3)sc2c1.Cl — lower, -6%
- COC(=O)c1c(C)[nH]c(C(=O)CSc2nnnn2-c2ccccc2)c1C — lower, 10.9%
- O=C(Cc1ccccc1)Nc1c(C(=O)N2CCOCC2)cnn1-c1ccccc1 — higher, 20.8%
- COCCn1c(SCC(=O)Nc2ccccc2F)nc2c([nH]c3ccccc32)c1=O — lower, 7.71%
- CC(NCc1cccs1)C(=O)NC1CCCCC1.O=C(O)C(=O)O (stereo not shown) — lower, 13.4%
- Cc1ccc(-c2csc(-c3c[nH]c4ccccc34)n2)c(C)c1 — lower, 7.51%
- CCOC(=O)C1CCN(c2ncnc3c(C)csc23)CC1 — lower, 12.7%
- Cc1ccc(C(=O)COC(=O)c2cnccn2)cc1[N+](=O)[O-] — lower, 4.16%
- Cc1ccc(NC(=O)c2nc[nH]c2C(=O)N2CCN(c3ccccc3)CC2)cc1 — lower, 8.95%
- CCN(CC)c1ccc(C=C2C(=O)OC(C)(C(C)(C)C)OC2=O)cc1 (stereo not shown) — lower, 9.12%
- CCn1c(=O)c(C(=O)NCc2ccc(F)cc2)c(O)c2ccccc21 — lower, 14.3%
- COc1cc(NC(=O)c2ccc(Cl)cc2)c2ncccc2c1 — lower, 13.9%
- CO/N=C/CC(=O)c1ccc(OC)cc1 — lower, 14.3%
- CC1(c2nnc(Cc3ccccc3)o2)CC(c2ccc([N+](=O)[O-])cc2)=NO1 (stereo not shown) — lower, -20.8%
- CC(C)CC(=O)OCC(=O)Nc1ccccc1Sc1ccccc1 — lower, 11.1%
- Cc1ccccc1OCC(=O)OC(C)CN1CCN(C)CC1.Cl (stereo not shown) — lower, 13.2%
- CCn1c(COc2ccccc2C)nnc1SCC(=O)Nc1cc(C)on1 — lower, 6.02%
- COc1ccc(-n2nc(C(N)=O)c(O)cc2=O)cc1 — lower, 11.4%
- CCCN1CCC(NCc2cn(C)nc2-c2ccc(Oc3ccccc3)cc2)CC1 — higher, 18.7%
- CC1(C)C(=O)N(OCc2ccccc2)C(C)(C)C(=O)N1OCc1ccccc1 — lower, 2.68%
- COc1ccccc1C(=O)NNC(=O)C1CCN(C(=O)OC(C)(C)C)CC1 — lower, 9.25%
- CCOC(=O)C1=C(C)N(CCO)C(=O)NC1c1ccccc1 (stereo not shown) — lower, -1.43%
- CSc1nc2ccccc2n1Cc1cccc([N+](=O)[O-])c1 — lower, -13%
- COc1ccc2c(C)cc(SC3CCOC3=O)nc2c1 (stereo not shown) — lower, 3.34%
- CCC(CC)C(=O)Nc1cccc(C(=O)N2CCCCCC2)c1 — lower, 1.72%
- C=CCSC1=C(C#N)C(c2cccc(OC)c2)CC(=O)N1 (stereo not shown) — lower, 0.746%
- Cc1cc(/C=C2\C(=N)N3N=C(C(C)C)SC3=NC2=O)c(C)n1Cc1ccccc1 — lower, 12.4%
- CSc1nnc2c3c4c(sc3c(=O)n(-c3ccccc3)n12)CC(C)(C)OC4 — lower, 8.51%
- O=C(Nc1nccs1)c1ccc(-c2ccc(F)cc2)o1 — lower, 10.4%
- COc1ccc2c(c1)c(CC(=O)OCC(N)=O)c(C)n2C(=O)c1ccc(Cl)cc1 — lower, 6.99%
- COc1cc(-c2nnc(NC(=O)CS(=O)(=O)c3ccc(F)cc3)o2)cc(OC)c1OC — higher, 17.8%
- COc1ccc(C(=O)CN2CCN(S(=O)(=O)c3cccc([N+](=O)[O-])c3)CC2)cc1 — lower, -64.3%
- CN(C)C(/C=C/Nc1cccc(Br)c1)=C(C#N)C#N — higher, 16.9%
- Brc1ccc(-c2cn3ccccc3n2)s1 — lower, 2.2%
- Cc1nonc1N1CCN(Cc2cn[nH]c2-c2ccc3c(c2)OCO3)CC1 — lower, 5.53%
- Cc1ccc(-c2cc(C(=O)N3CCCc4ccccc43)c3ccccc3n2)cc1 — lower, 8.11%
- CCCCOC(=O)C1=C(C)NC(=O)NC1c1cc2c(cc1Br)OCO2 (stereo not shown) — lower, 13.1%
- COc1ccc(N2C(=NC(=O)c3ccc(Br)cc3)SC3CS(=O)(=O)CC32)cc1 (stereo not shown) — lower, 9.53%
- Cc1nc(Cl)c(C#N)cc1-c1ccccc1 — lower, -0.883%
- COc1ccc(-c2cn3cc(C)ccc3n2)cc1Br — higher, 16.3%
- Cc1c(/C=C/C(=O)c2ccc(C(C)C)cc2)cnn1C — lower, 2.64%
- CCn1cc(C(=O)N2CC(C)CC(C)C2)c(=O)c2cc(S(=O)(=O)N3CCCC3)ccc21 (stereo not shown) — lower, 13.8%
- COc1ccc(C(=O)NC(=S)Nc2ccc(CN3CCOCC3)cc2)cc1Br — higher, 15.3%
